# Laboratory results reported in PubChem BioAssay (Tox21).
# Some entries of the source have several records that differ or are many. This is not the full list of results. The source may hold further records. Unless noted, calls come from the whole dose curve; as a rule, active = well fitted curve in the direction sought with a large enough effect in the repeat runs; inconclusive = weak or mixed curves; inactive = no such curve, though single readings can be large; an effect the other way counts as inactive or inconclusive. The values listed for one entry are repeats (runs, samples, wells, individuals or studies). The source holds several records for some structures; these can differ, active in one and inactive in another. Records carry a tag for their origin. A, B and so on number the origins entry by entry. Marks such as (2×) say how often a value occurs here.
# Key:
# [1] = qHTS assay for identifying genotoxic compounds that show differential cytotoxicity against isogenic chicken DT40 cell lines with known DNA damage response pathways - wild type cell line (AID 743012); conditions: DT40 wild type chicken cells viability, CellTiter-Glo, 40 h; note: nearly all actives have a fitted effect of over 60% in size
# Outline: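 Wild type DT40, 300 cells/well, ~0.5 h settle at 37 C/5% CO2; compounds in DMSO added by pintool; 40 h at 37 C/5% CO2; CellTiter-Glo, 30 min RT; luminescence.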
# [2] = qHTS assay to identify small molecule antagonists of the androgen receptor (AR) signaling pathway using the MDA cell line - cell viability counter screen (AID 743041; note: nearly all actives have a fitted effect of over 45% in size); conditions: MDA-kb2 viability, CellTiter-Fluor, 16 h, cells co-treated with R1881 androgen agonist; series mostly up to 70.3 µM
# Outline: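 MDA-kb2 AR-luc cells (MMTV-luciferase, AR/GR responsive) treated with compounds plus R1881 agonist for 16 h at 37C. CellTiter-Fluor added at 15.5 h; fluorescence read after 30 min in the same wells.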
# [3] = qHTS assay to identify small molecule antagonists of the estrogen receptor alpha (ER-alpha) signaling pathway using the BG1 cell line (AID 743080; calls by dose curve;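 note: BG1 cells stimulated with 17beta-estradiol alongside compound; nearly all actives have a fitted effect of over 25% in size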); conditions: BG1Luc4E2 ERE-luciferase antagonist mode, luminescence
# Outline: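 Luciferase inhibition measured with ONE-Glo after 30 min at RT in BG1Luc4E2 cells given test compounds and 17beta-estradiol for 21.5 h at 37 C; CellTiter-Fluor viability read in the same wells beforehand.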
# [4] = qHTS assay for small molecules that induce genotoxicity in human embryonic kidney cells expressing luciferase-tagged ATAD5 - cell viability (AID 651634; calls by dose curve; note: nearly all actives have a fitted effect of over 25% in size); conditions: HEK293T ATAD5-luc cells viability, CellTiter-Fluor, 15.5 h; series mostly up to 83.3 µM
# Outline: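 Fluorescence from CellTiter-Fluor, reporting protease activity within live cells, served as the viability read-out. HEK293T cells carrying luciferase-tagged ATAD5 had been treated with compound for 15.5 hr at 37C.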
# [5] = molecular target: Androgen receptor (Homo sapiens) (UniProt P10275); test: qHTS assay to identify small molecule agonists of the androgen receptor (AR) signaling pathway using the MDA cell line (AID 743040; note: nearly all actives have a fitted effect of over 20% in size); conditions: MDA-kb2 AR-luc cells, MMTV luciferase, 16 h; series mostly up to 95 µM
# Chain of UniProt P10275 (P10275 whole entry, looked up): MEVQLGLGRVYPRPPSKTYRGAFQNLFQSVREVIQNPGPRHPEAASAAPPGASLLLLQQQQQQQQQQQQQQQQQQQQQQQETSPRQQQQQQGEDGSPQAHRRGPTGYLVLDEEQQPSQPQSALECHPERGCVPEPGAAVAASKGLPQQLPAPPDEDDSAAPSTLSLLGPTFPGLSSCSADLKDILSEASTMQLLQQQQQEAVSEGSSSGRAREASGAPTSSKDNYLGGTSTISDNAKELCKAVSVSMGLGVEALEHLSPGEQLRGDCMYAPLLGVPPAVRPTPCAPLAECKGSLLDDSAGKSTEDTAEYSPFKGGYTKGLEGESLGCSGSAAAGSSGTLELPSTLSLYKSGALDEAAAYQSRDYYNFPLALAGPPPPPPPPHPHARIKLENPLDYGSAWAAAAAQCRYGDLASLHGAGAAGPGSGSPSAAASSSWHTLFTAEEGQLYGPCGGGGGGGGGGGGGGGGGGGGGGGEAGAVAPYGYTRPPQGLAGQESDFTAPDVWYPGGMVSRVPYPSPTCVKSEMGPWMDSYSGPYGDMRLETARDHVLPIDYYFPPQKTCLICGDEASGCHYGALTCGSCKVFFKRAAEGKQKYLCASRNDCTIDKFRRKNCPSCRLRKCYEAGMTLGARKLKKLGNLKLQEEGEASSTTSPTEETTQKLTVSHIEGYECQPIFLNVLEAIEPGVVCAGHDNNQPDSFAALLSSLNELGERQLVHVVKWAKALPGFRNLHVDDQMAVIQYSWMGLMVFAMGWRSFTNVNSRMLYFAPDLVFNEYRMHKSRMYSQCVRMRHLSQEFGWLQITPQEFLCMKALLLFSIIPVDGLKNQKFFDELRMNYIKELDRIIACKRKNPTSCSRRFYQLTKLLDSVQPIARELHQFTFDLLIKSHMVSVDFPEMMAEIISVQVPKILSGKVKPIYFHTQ
# [6] = qHTS assay to identify small molecule antagonists of the estrogen receptor alpha (ER-alpha) signaling pathway using the BG1 cell line in the presence of 0.1 nM 17-beta-estradiol - cell viability counter screen (AID 1259241); conditions: VM7Luc4E2 (BG1) viability, CellTiter-Fluor protease, 22 h, 0.1 nM estradiol agonist added; series mostly up to 92.4 µM; note: nearly all actives have a fitted effect of over 40% in size
# Outline: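 CellTiter-Fluor read (30 min, 37C) on ER-alpha/ERE-luc VM7Luc4E2 cells; 22 hr compound treatment; agonist 0.1 nM E2 final; same-well multiplex.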
# [7] = qHTS assay to identify small molecule antagonists of the thyroid receptor (TR) signaling pathway (AID 743065); conditions: GH3.TRE-Luc, T3-stimulated luciferase inhibition, 23.5 h; series mostly up to 70.3 µM; note: nearly all actives have a fitted effect of over 55% in size
# Outline: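 GH3.TRE-Luc rat pituitary cells (two TREs driving luciferase) were dosed with compound, then stimulated with 1 nM T3 (final) for 23.5 h at 37 C. ONE-Glo luminescence was the read-out, with CellTiter-Fluor fluorescence as the cytotoxicity counter-screen.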
# [8] = qHTS assay for small molecule disruptors of the mitochondrial membrane potential (AID 720635); conditions: HepG2 mitochondrial membrane potential, Mito-MPS dye ratio; series mostly up to 83.2 µM
# Outline: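 HepG2 cells exposed to compound 1 hr at 37C, then Mito-MPS dye 30 min. Ratio read of aggregate (540/590 nm) versus monomer (490/535 nm) fluorescence.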
# [9] = molecular target: Glucocorticoid receptor (Homo sapiens) (UniProt P04150); test: qHTS assay to identify small molecule antagonists of the glucocorticoid receptor (GR) signaling pathway (AID 720692; active = well fitted inhibition curve with a large enough effect in the signal ratio in the repeat runs, not every such curve was filed as active; inconclusive = weak or mixed curves, or effect the other way; inactive = no such curve, though single readings can be large or run the other way; the % refers to the signal ratio); conditions: GR-bla HeLa, beta-lactamase FRET ratio, dexamethasone-stimulated, 18 h; series mostly up to 58.5 µM
# Chain of UniProt P04150 (P04150 whole entry, looked up): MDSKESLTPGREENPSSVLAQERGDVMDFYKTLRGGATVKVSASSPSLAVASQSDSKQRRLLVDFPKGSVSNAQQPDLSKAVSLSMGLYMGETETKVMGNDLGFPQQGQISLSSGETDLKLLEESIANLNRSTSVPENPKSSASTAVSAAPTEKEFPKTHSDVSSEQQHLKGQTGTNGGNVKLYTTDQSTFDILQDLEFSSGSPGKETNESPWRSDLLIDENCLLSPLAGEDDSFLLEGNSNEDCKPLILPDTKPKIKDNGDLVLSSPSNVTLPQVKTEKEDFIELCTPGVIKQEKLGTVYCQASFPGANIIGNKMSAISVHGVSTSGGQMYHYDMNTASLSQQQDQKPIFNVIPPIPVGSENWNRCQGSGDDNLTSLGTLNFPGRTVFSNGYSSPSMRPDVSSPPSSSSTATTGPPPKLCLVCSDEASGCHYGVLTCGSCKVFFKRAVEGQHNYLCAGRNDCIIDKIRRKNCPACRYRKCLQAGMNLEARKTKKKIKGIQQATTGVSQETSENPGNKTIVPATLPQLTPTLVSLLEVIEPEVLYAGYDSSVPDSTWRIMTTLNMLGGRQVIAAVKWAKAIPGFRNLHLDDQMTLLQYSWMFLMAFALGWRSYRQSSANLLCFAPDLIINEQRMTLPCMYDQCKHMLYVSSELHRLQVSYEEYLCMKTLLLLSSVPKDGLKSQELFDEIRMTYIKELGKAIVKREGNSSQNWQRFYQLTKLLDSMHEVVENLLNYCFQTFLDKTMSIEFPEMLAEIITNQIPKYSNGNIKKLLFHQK
# [10] = molecular target: Estrogen receptor (Homo sapiens) (UniProt P03372); test: qHTS assay to identify small molecule agonists of the estrogen receptor alpha (ER-alpha) signaling pathway (AID 743075; calls by dose curve;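 note: HEK293 GripTite cells with ER-alpha and UAS-driven beta-lactamase reporter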); conditions: HEK293 ER-alpha-UAS-bla, beta-lactamase FRET ratio, 18 h
# Chain of UniProt P03372 (P03372 whole entry, looked up): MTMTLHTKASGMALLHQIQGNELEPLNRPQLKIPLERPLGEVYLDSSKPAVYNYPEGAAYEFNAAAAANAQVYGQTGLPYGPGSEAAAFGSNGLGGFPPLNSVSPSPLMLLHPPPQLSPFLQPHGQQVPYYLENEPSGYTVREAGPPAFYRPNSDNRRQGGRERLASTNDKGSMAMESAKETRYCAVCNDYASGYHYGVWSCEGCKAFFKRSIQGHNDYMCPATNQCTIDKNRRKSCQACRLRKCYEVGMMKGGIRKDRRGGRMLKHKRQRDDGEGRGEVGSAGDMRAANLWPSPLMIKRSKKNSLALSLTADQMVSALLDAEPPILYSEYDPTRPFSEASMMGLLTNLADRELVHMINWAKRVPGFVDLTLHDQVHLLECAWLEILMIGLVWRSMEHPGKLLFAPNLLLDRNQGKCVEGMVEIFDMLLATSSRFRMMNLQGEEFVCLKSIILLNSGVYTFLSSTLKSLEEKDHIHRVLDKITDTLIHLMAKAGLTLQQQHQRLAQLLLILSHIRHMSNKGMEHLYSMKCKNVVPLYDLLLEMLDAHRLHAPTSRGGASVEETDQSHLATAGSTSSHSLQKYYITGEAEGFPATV
# [11] = A CellTox Green Cytotoxicity Assay to monitor cytotoxicity in HEK293 cells - 24 hour (AID 1224875); conditions: CellTox Green fluorescence; series mostly up to 76.8 µM; note: nearly all actives have a fitted effect of over 45% in size
# Outline: (§1)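 Nonlytic real-time cytotoxicity: HEK293 + CellTox Green reagent plated, 5 h preincubation, pintool compound addition (23 nL in DMSO), 37 C for 40 h, fluorescence measured at successive time points.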
# [12] = molecular target: Cytochrome P450 2C9 (Homo sapiens) (UniProt P11712); test: Cytochrome P450 Family 2 Subfamily C Member 9 (CYP2C9) small molecule antagonists: luciferase reporter qHTS assay (AID 1671198); conditions: P450-Glo CYP2C9 enzyme assay, luciferin luminescence; note: nearly all actives have a fitted effect of over 50% in size
# Chain of UniProt P11712 (P11712 whole entry, looked up): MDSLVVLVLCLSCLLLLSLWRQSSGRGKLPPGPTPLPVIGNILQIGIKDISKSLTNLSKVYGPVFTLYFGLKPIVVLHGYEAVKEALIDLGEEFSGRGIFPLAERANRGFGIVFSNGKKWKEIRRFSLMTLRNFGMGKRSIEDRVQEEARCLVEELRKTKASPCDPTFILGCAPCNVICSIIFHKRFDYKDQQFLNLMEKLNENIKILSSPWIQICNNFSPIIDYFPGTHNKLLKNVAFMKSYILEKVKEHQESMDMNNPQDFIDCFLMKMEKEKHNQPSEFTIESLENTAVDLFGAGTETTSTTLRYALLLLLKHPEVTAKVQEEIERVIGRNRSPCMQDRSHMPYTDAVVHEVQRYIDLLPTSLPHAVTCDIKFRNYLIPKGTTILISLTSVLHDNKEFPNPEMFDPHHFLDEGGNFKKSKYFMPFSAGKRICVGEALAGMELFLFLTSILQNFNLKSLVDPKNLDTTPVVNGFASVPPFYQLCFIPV
# Outline: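 P450-Glo proluciferin substrate with CYP2C9 enzyme; 10 min RT preincubation, then NADPH regeneration 1 h at 37C; luciferin detection reagent 20 min RT, luminescence in relative luminescence units.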
# [13] = qHTS assay to identify small molecule antagonists of the peroxisome proliferator-activated receptor gamma (PPARg) signaling pathway - cell viability counter screen (AID 743194); conditions: PPARg-bla HEK293H viability, CellTiter-Glo luminescence, 17 h, co-treated with 50 nM rosiglitazone; series mostly up to 62.6 µM; note: nearly all actives have a fitted effect of over 55% in size
# Outline: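 Cytotoxicity counter screen in PPARg-bla HEK293H cells, same wells as reporter assay. Compounds plus 50 nM rosiglitazone (final) for 17 h at 37 C, then viability read by CellTiter-Glo luminescence.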
# [14] = qHTS assay to identify small molecule antagonists of the TGF-beta/Smad signaling pathway - cell viability counter screen (AID 1346824); conditions: SBE-bla HEK293T viability, CellTiter-Glo luminescence; series mostly up to 76.8 µM; note: nearly all actives have a fitted effect of over 50% in size
# Outline: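 SBE-bla HEK 293T cells, incubated overnight, then compound plus 0.25 ng/mL TGF-beta1 (stock added) for 5 hr at 37 C. Viability was read in the same wells by CellTiter-Glo luminescence after 30 min at room temperature.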
# [15] = A CellTox Green Cytotoxicity Assay to monitor cytotoxicity in HEK293 cells - 16 hour (AID 1224888); conditions: CellTox Green fluorescence; series mostly up to 76.8 µM; note: nearly all actives have a fitted effect of over 35% in size
# Outline: as §1
# Potency is the fitted concentration of half-maximal effect.
smiles,measurement,setting,value
NC(N)=NC(N)=NCCc1ccccc1,Potency,[1],"active: 11.4, 7.5, 38.3, 48.6 µM [separate samples]"
same,Potency,[2],inactive [sample A] and active: 60.8 µM [sample B] and active: 54.5 µM [sample C]
same,Potency,[3],"active: 5.07, 9.44, 21.6, 24.3 µM [separate samples]"
O=c1c(-c2ccc(O)cc2)coc2cc(O)cc(O)c12,Potency,[4],inactive [sample A] and active: 53.5 µM [sample B] and inactive [sample C]
COc1cc(O)c(C(=O)c2ccccc2)cc1S(=O)(=O)O,Potency,[5],active: 29.8 µM [sample A] and inactive [sample B] and inactive [sample C]
NC(=O)N/N=C/c1ccc([N+](=O)[O-])o1,Potency,[4],inactive [sample A] and active: 19.3 µM [sample B]
same,Potency,[6],inactive [sample A] and active: 54.5 µM [sample B]
CC1=C(/C=C/C(C)=C/C=C/C(C)=C/C(=O)O)C(C)(C)CCC1,Potency,[7],inactive [sample A] and active: 61.2 µM [sample B] and active: 61.1 µM [sample C]
Cc1cnc(NC(=O)C2=C(O)c3ccccc3S(=O)(=O)N2C)s1,Potency,[4],inactive [sample A] and active: 61.1 µM [sample B]
same,Potency,[8],"active: 10.6 µM, 9.71 µM, 19.3 µM and inactive [separate samples]"
C#C[C@]1(O)CC[C@H]2[C@@H]3CCC4=CC(=O)CC[C@@H]4[C@H]3CC[C@@]21CC,Potency,[9],"active: 601 nM, 219 nM, 490 nM and inactive [separate samples]"
same,Potency,[10],active: 1.51 µM [inconclusive] and active: 438 nM [inconclusive] and active: 1.95 µM [inconclusive] and active: 2.19 µM [inconclusive] [separate samples]
same,Potency,[11],active: 49.1 µM and inactive (3×) [separate samples]
same,Potency,[12],"active: 2.25, 7.1, 2.24, 3.09 µM [separate samples]"
CC(C)(C)CC(C)(C)c1ccc(O)c(-n2nc3ccccc3n2)c1,Potency,[13],active: 44.3 µM [sample A] and inactive [sample B]
same,Potency,[14],active: 35.2 µM [sample A] and inactive [sample B] and inactive [sample C]
CC(=O)CCC(C)C,Potency,[11],inactive [sample A] and active: 24.5 µM [sample B]
same,Potency,[15],inactive [sample A] and active: 24.5 µM [sample B]
